Measured values from PMC4336329 (PLoS ONE, 2015).
Out of some 310,000 compounds screened, about 14,000 (4.5%) showed an effect of 50% or more. The effect is printed as a negative number. The list shows a part of the results.

Target: human ether-à-go-go-related gene (hERG) potassium channel (human, UniProt Q12809)
Assay: primary screen, population patch clamp on CHO cells stably expressing hERG
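Further: peak tail current of the secondary pulse compared with the same well before compound.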

human ether-à-go-go-related gene (hERG) potassium channel, sequence (Q12809 whole entry, looked up): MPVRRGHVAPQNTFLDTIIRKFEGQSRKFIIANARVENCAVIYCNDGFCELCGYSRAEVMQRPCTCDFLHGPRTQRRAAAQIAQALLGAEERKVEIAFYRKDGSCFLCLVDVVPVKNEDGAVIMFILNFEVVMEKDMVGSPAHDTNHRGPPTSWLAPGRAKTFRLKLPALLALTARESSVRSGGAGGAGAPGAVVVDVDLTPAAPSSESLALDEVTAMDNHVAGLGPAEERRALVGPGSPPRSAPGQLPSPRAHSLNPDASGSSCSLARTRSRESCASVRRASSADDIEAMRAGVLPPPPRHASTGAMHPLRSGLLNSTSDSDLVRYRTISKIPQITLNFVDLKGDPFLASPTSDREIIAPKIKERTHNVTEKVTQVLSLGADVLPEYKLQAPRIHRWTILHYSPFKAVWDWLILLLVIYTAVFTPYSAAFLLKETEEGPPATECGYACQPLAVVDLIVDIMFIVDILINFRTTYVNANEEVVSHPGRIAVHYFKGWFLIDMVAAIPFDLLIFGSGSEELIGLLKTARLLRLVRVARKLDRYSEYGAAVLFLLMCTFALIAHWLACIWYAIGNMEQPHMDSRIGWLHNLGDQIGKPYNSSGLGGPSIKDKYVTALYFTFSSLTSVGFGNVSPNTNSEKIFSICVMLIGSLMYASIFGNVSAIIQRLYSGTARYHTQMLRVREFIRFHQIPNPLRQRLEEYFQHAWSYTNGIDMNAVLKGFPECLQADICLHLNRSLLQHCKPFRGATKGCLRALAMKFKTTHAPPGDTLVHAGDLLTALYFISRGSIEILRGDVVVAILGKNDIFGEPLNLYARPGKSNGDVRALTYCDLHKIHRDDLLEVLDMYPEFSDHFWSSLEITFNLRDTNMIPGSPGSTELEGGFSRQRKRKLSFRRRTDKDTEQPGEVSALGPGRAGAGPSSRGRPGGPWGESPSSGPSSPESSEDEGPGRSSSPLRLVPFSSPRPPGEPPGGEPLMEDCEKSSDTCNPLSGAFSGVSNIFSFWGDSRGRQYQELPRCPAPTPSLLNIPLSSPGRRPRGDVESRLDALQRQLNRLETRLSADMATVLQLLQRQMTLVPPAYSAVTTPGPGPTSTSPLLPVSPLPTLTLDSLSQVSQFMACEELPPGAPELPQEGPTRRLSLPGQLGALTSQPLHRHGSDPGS

Row | Structure (SMILES) | hERG current change (%, negative = inhibition) at 10uM [%]
1 | CC(NCc1cc(Br)ccc1OCC(N)=O)C12CC3CC(CC(C3)C1)C2.Cl (centres unmarked) | -55.8
2 | O=C(/C=C/c1ccc(Cl)cc1)NCc1ccncc1 | -2.14
3 | Cc1cc(O)c(C(C[N+](=O)[O-])c2ccc(Cl)cc2)c(=O)o1 (centres unmarked) | -12.1
4 | O=c1cc(-c2ccccc2)nc2nc(-c3ccccc3)[nH]n12 | 14.7
5 | CCOc1ccc(N2CC(=O)SC2=S)cc1 | -11.8
6 | COc1ccc(C2C(C(C)=O)=C(O)C(=O)N2CCc2c[nH]c3ccccc23)cc1OC (centres unmarked) | 21.1
7 | COc1ccc(-c2csc3ncnc(N4CCN(c5cccc(C)c5C)CC4)c23)cc1 | 15.5
8 | COc1ccc(N2CCN(C(=O)NC(=O)c3ccc(Cl)cc3)CC2)cc1 | -4.38
9 | NNC(=O)C(=O)Nc1ccc(Cl)c(Cl)c1 | 12
10 | CCCCN(C(=O)c1ccc(N2CCCC2=O)cc1)c1c(N)n(CCCC)c(=O)[nH]c1=O | 2.38
11 | CCn1c(CNC(=O)c2ccccc2Br)nnc1SCC(=O)NC1=NCCS1 | 27.9
12 | CCOc1cc(S(=O)(=O)N2CCN(CC)CC2)ccc1Cl | -6.08
13 | CN1/C(=C/C2CC(=O)N(c3ccc([N+](=O)[O-])cc3)C2=O)C(C)(C)c2ccccc21 (centres unmarked) | -23.2
14 | CC(C)OCCCNc1ncc2c(n1)CC(c1ccccc1)CC2=O (centres unmarked) | -23.6
15 | O=C(O)C1CC(=O)N(Cc2cccs2)C1 (centres unmarked) | 24.7
16 | CC1(c2nnc(Cc3ccccc3)o2)CC(c2ccc(C#N)cc2)=NO1 (centres unmarked) | -62.3
17 | COc1ccc(NC(=O)C/C(C)=N/NC(=O)COc2ccc(OC)cc2)cc1 | -18.8
18 | CCCC(=O)Nc1ccc(S(=O)(=O)N2CCOCC2)cc1 | 3.59
19 | COc1cccc(C(=O)OCC(=O)c2c(N)n(C)c(=O)n(C)c2=O)c1 | -3.46
20 | Cc1ccc(OCc2nnc(SCCN3CCOCC3)n2C)cc1.O=C(O)C(=O)O | -6.06
21 | COc1ccc(-n2cnnc2SCC(=O)Nc2cccc(S(N)(=O)=O)c2)cc1 | 10.4
22 | Cc1cc(OC(=O)C(C)(C)C)c([N+](=O)[O-])c(=O)[nH]1 | 19.7

Row | Structure (SMILES) | hERG current change (%, negative = inhibition) at 10uM [%]
23 | COc1ccc(C(=O)NC2CCN(Cc3ccccc3)C2)cc1S(=O)(=O)N1CCOCC1 (centres unmarked) | -8.46
24 | O=C(NC1CCCCC1)C(c1ccccn1)N(C(=O)c1csnn1)C1CCCCC1 (centres unmarked) | 5.2
25 | O=C(CCNS(=O)(=O)c1ccccc1C(F)(F)F)NNC(=O)c1csc(N2CCOCC2)n1 | -13.6
26 | CS(=O)(=O)N(CC(=O)N1CCCC1)c1ccc2c(c1)OCCO2 | -23.7
27 | CN(C)S(=O)(=O)c1ccc(C(=O)Nc2ccccc2OC(F)(F)C(F)F)cc1 | -16.6
28 | Cc1cc(NC(=O)CS(=O)CC(=O)Nc2c(C)cccc2C)ccc1-n1cnnn1 (centres unmarked) | 13
29 | CCN(CC)S(=O)(=O)c1ccc(OC)c(NC(=O)c2ccc([N+](=O)[O-])cc2)c1 | -34.9
30 | Cc1ccc(CN2CCN(Cc3cccc(-n4cccn4)c3)CC2CCO)cc1 (centres unmarked) | -74.5
31 | Cc1nn(CC(=O)NCc2ccccc2)c(=O)c2cccn12 | 9.27
32 | O=C(CSc1ncnc2c1nnn2-c1ccc(F)cc1)NCC1CCCO1 (centres unmarked) | -12.4
33 | Cc1ccc(NC(=O)COC(=O)CCNS(=O)(=O)c2ccc(C)c(C)c2)cc1 | -10.9
34 | CC1=CC(c2ccccc2)NC(=S)N1 (centres unmarked) | 7.74
35 | CN1CCN(C(=O)COc2ccc(N(C)S(=O)(=O)c3ccc(F)cc3)cc2)CC1 | -4.56
36 | COc1ccc(CCNC(=O)c2cnc3ccccn3c2=O)cc1 | -22.3
37 | CCOc1ccc(-c2c(C(=O)N/N=C(\C)c3ccco3)nnn2-c2nonc2N)cc1 | 14.6
38 | N#CC1(C#N)C(C(=O)C23CC4CC(CC(C4)C2)C3)C12CCOCC2 (centres unmarked) | 15.8
39 | Cc1cc(NC(=O)/C=C/c2cccc(Cl)c2)n(-c2nc3ccccc3[nH]2)n1 | -1.83
40 | O=S(=O)(NCc1cc(-c2ccccc2)no1)c1ccc(Cl)cc1 | -3.08
41 | Cc1cc(C)c(C(=O)Nc2ccc(S(=O)(=O)Nc3ccccn3)cc2)c(C)c1 | 13
42 | COCCN1CCC(CNCc2c(C(=O)N3CCCCC3)nc3c(C)cccn23)C1 (centres unmarked) | -12.7
43 | O=C(CCS(=O)(=O)c1ccccc1)OCc1ccc([N+](=O)[O-])cc1 | -45
44 | CC(=O)N1CCN(CCS(=O)(=O)c2ccc(Br)cc2)CC1 | 0.779
